Measurements published in patent US11365205B2 (Aurigene Discovery Technologies Limited, priority 2018, dated 2022).

Biological target: PRMT5/MEP50 Complex (Homo sapiens (Human), UniProt O14744)
Assay: PRMT5 inhibition based on TR-FRET assay
Type: biochemical
Conditions: 32 nM PRMT5:MEP50, 50 nM Histone-H4 peptide, 1 μM SAM
Source text: PRMT5 Inhibition Based on TR-FRET Assay:
Protein arginine methyltransferase 5 (PRMT5) is a type II arginine methyltransferase that catalyze mono- and symmetric demethylation on arginine residues of histone or non-histone proteins in presence of S-adenosylmethionine (AdoMet or SAM) a cofactor responsible for donating the methyl group. PRMT5 is reported to be overexpressed in several human cancers. To identify compounds that inhibit the PRMT5 and decrease its activity, a TR-FRET based assay has been established. Time-resolved fluorescence resonance energy transfer (TR-FRET) HTS assays are homogeneous proximity assays where the interaction of two dye-labeled binding partners is detected by the energy transfer between a donor and an acceptor dye and the subsequent light emission by the acceptor dye. PRMT5 catalyzes Histone H4 peptide which is biotin tagged to the Lysine amino acid at carboxyl end, in presence of S-adenosyl-1-methionine (SAM) to methylate the peptide. The antibody specific to mono methylated H4 peptide (H4R3) with Ig conjugate binds to the methylated peptide, indirectly binding to the Europium lanthanide. […]
The compound dilutions were prepared as 7.5% DMSO stock solutions in assay buffer. […] The plates were then read on Victor-3 with Excitation at 340 nm and Emissions collected at 615 and 665 nm in TR-FRET protocol. […]

UniProt O14744, sequence (O14744 whole entry): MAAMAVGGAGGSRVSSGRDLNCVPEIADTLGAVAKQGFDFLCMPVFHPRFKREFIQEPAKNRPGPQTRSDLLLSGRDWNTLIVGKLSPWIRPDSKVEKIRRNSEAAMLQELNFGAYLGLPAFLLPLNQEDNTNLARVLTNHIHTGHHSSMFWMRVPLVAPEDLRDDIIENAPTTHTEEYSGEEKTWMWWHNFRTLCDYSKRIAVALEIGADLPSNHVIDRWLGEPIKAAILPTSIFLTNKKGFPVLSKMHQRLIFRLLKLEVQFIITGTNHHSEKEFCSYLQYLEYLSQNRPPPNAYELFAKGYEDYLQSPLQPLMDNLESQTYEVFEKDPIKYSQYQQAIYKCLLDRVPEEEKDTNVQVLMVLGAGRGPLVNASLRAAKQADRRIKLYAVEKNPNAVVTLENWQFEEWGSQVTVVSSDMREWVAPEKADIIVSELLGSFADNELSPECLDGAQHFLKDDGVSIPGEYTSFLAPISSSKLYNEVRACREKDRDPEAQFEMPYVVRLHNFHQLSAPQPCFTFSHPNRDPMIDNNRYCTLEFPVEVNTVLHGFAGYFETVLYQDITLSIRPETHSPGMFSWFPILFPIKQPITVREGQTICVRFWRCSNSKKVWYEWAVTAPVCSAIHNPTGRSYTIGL
UniProt O14744, sequence (Q9BQA1 whole entry partner): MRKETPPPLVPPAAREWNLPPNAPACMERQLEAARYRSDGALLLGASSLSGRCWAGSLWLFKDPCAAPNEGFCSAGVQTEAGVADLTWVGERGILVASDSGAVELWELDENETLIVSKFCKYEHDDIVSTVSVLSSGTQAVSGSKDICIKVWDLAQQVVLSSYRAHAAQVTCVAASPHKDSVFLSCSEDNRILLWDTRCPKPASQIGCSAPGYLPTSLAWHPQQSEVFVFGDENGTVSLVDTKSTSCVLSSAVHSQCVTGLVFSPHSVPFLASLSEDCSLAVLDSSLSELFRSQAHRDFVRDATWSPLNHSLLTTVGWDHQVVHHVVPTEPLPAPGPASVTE

SMILES | IC50 [µM]
Cc1cccc(Cn2c(=O)n(CC(O)CN3CCc4ccccc4C3)c3ccccc32)c1 (centres unmarked) [Example 90, 1-(3-(3,4-Dihydroisoquinolin-2(1H)-yl)-2-hydroxypropyl)-3-(3-methylbenzyl)-1,3-dihydro-2H-benzo[d]imidazol-2-one] | 0.26
CS(=O)(=O)c1ccc(Cn2c(=O)n(CC(O)CN3CCc4ccccc4C3)c3cc(F)ccc32)cc1 (centres unmarked) [Example 97, 3-(3-(3,4-Dihydroisoquinolin-2(1H)-yl)-2-hydroxypropyl)-5-fluoro-1-(4-(methylsulfonyl)benzyl)-1,3-dihydro-2H-benzo[d]imidazol-2-one] | 0.04
